Structures are written as SMILES. Among all 310,000 compounds or so, about 14,000 (4.5%) showed an effect of 50% or more. Effects have a minus sign here. Some of the results follow.
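Note: peak tail current of the secondary pulse compared with the same well before compound.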

human ether-à-go-go-related gene (hERG) potassium channel, sequence (Q12809 whole entry, looked up): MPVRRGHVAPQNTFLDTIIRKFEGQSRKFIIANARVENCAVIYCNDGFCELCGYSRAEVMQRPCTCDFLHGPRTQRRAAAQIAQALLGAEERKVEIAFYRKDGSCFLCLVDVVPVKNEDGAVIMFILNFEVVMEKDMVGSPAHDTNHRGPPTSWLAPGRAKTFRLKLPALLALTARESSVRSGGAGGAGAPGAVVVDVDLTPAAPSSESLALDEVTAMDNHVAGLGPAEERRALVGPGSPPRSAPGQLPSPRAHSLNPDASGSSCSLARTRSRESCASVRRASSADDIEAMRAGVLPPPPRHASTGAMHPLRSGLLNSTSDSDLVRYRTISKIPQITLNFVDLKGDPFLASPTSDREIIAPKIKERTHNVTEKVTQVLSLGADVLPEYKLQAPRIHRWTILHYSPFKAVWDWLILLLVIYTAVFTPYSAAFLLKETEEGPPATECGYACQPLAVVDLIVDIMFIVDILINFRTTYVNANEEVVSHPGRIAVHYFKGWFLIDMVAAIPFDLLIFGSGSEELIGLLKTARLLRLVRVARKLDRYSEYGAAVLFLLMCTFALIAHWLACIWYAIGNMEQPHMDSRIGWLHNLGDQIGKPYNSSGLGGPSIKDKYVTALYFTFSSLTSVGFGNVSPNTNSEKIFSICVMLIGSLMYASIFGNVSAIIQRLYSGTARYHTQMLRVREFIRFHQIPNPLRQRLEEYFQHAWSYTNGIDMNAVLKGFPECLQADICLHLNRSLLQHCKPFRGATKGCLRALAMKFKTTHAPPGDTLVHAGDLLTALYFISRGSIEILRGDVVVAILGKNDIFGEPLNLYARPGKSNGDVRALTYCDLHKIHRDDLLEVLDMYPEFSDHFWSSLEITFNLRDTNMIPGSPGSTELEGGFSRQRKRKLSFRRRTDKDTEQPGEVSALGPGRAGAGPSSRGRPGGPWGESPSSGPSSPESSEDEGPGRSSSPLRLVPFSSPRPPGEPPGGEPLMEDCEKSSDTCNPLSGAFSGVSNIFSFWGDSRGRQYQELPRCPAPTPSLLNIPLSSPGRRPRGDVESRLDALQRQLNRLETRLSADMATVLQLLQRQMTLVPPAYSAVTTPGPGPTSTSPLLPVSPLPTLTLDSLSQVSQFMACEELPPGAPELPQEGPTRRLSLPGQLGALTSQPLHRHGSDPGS

The assay has as its target human ether-à-go-go-related gene (hERG) potassium channel (human, UniProt Q12809). As to the kind of experiment: primary screen, population patch clamp on CHO cells stably expressing hERG.
Consider `O=C(O)C(=O)Nc1nc(-c2ccc3c(c2)OCCO3)cs1`, for which the “hERG current change (%, negative = inhibition) at 10uM” value amounted to 17.1%.
In the case of `COc1ccc(C)cc1NC(=O)CSc1nnc(-c2ccco2)n1N`, the “hERG current change (%, negative = inhibition) at 10uM” value is -9.67%.
Next, `O=S(=O)(c1ccc(N2CCOCC2)c(Cl)c1)N1CCOCC1`: 15.5%.
With `CC(C)CSc1nc2c(=O)[nH][nH]c(=O)c2n1Cc1ccccc1` the figure was 7.56%; with `COC(=O)n1c(=O)oc2cc(S(=O)(=O)N3CCOCC3)ccc21`, -4.41%; with `CN(C(=O)COC(=O)c1cc(S(=O)(=O)N2CCCCC2)ccc1N1CCOCC1)C1CCS(=O)(=O)C1` (centres unmarked), -6.63%.
Next, `Nc1no[n+]([O-])c1-c1ccccc1`: 28.3%; `CN(C)c1ccc(NC(=O)c2cccc(N3C(=O)CCC3=O)c2)cc1`: -3.12%.
Consider `CC1=NN(c2ccccc2)C(=O)C1N=Nc1ccc(N)cc1` (centres unmarked), for which the “hERG current change (%, negative = inhibition) at 10uM” value is 5.15%.
With `O=C(c1c[nH]cc1-c1ccccc1)c1cccc2ccccc12` the figure was -14.4%; with `O=C(Nc1ccccc1F)C1CCCN1S(=O)(=O)c1ccc(Cl)cc1` (centres unmarked), -8.22%.
Turning to `COc1ccc(C2CC(c3cccc(OC)c3OC)n3nnnc3N2)cc1` (centres unmarked), the “hERG current change (%, negative = inhibition) at 10uM” value is listed as -33.9%.
With `Cc1nc(C(=O)N/N=C/c2[nH]ncc2Br)cs1` the figure was 10.2%; with `CCC(C)c1ccccc1OCCn1ccnc1.O=C(O)C(=O)O` (centres unmarked), -7.12%; with `CCN(CC)S(=O)(=O)c1cc(C(=O)Nc2ccccn2)ccc1C`, -12.6%.
Next, `O=C(CN1CCOCC1)NN1CC(=O)N(c2ccc(Cl)cc2)CC1=O`: 5.81%.
With `Cc1ccc(NC(=O)C2(NC(=O)c3ccccn3)CCCCC2)cc1Br` the figure was 6.26%; with `Cc1ccc(C(=O)C(C)N(C(=O)c2ccc(Cl)cc2Cl)N2C(=O)CCCC2=O)cc1` (centres unmarked), -5.64%; with `COc1cc(NC(=O)Cn2cnc(S(=O)(=O)N3CCCCC3)c2)cc(OC)c1OC`, 14.9%.
Regarding `CCC(Sc1nc2n[nH]c(C)c2c(=N)n1-c1ccc(C)c(Cl)c1)C(=O)N1CCOCC1` (centres unmarked), the “hERG current change (%, negative = inhibition) at 10uM” value was -4.36%.
Next, `O=C1NC(CCc2ccccc2)C(=O)N1Cc1cccc2ccccc12` (centres unmarked): 13.6%; `Cc1nc2ccc(P(=O)(O)O)cc2s1`: 16.2%; `O=C(CNC(=O)N1CC(=O)Nc2ccccc21)Nc1cccc(F)c1`: 12.5%.
As for `COc1cc(O)ccc1C=O`, the “hERG current change (%, negative = inhibition) at 10uM” value is recorded as -5.93%.
With `Cc1cccc(C)c1NC(=O)N1CCC(N2CCCCC2)CC1` the figure was 5.49%; with `COc1ccc2c3c([nH]c2c1)C(C)N(C(C)=O)CC3` (centres unmarked), 7.88%; with `O=C1CN(S(=O)(=O)c2ccc(Br)cc2)c2ccccc2N1`, -6.63%.
For `CCOc1ccc(NC(=O)c2cccc(NC3=NC4CS(=O)(=O)CC4S3)c2)cc1` (centres unmarked), the “hERG current change (%, negative = inhibition) at 10uM” value is listed as 24.2%.
With `CC(C)CCNC(=O)COc1ccc2c(c1)C(=O)CC(C)(C)O2` the figure was 6.94%.
Next, `CC(=O)N1N=C(c2c(-c3ccccc3)c3cc(C)ccc3[nH]c2=O)CC1c1ccco1` (centres unmarked): -18%; `CCOc1ccccc1Nc1cc2n(c(=O)n1)CCc1cc(OC)c(OC)cc1-2`: -6.03%; `O=C(CSc1nnc2ccccn12)Nc1ccc2c(c1)OCCO2`: 7.4%.
Next, `C/C=N/NC(=O)c1cc(Br)ccc1O`: 4.19%; `CN1CCN(c2ccc([N+](=O)[O-])c(-n3nc(-c4ccccc4)c4ccccc4c3=O)c2)CC1`: -19.5%.
With `COc1ccc(C(OCC(O)CN(C)C2CCCCC2)c2ccc(OC)cc2)cc1` (centres unmarked), the “hERG current change (%, negative = inhibition) at 10uM” value was -69.8%.
As to `Nc1ccccc1-c1nnc(-c2ccccc2N)n1N`, the “hERG current change (%, negative = inhibition) at 10uM” value worked out at 8.38%.
With `COc1cc2c(cc1OC)CN(C(=O)c1ccc(S(=O)(=O)N3CCCCC3)cc1)CC2`, the “hERG current change (%, negative = inhibition) at 10uM” value is reported as -16.5%.
For the compound `COc1cccc(CC2(CO)CCCN(Cc3cn(C)c4ccccc34)C2)c1` (centres unmarked), the “hERG current change (%, negative = inhibition) at 10uM” value is -77.9%.
With `CCOC(=O)c1c(NC(=O)c2ccoc2C)sc(C)c1C` the figure was 12%; with `CC(C)C(C(=O)NCc1ccco1)N(C(=O)CNS(=O)(=O)c1ccccc1)c1ccccc1` (centres unmarked), 2.8%.
On to `COc1cc(OC)c(OC)cc1/C=N/N(C)c1ccccc1`, for which the “hERG current change (%, negative = inhibition) at 10uM” value worked out at 17%.
`CC(=O)c1ccc(OCCCC(=O)N2CCN(S(=O)(=O)c3ccc(C)cc3C)CC2)cc1`: the “hERG current change (%, negative = inhibition) at 10uM” value is reported as -40.8%.
As for `COc1ccc(CCC(=O)Nc2ccc(Br)cn2)cc1`, the “hERG current change (%, negative = inhibition) at 10uM” value is listed as -0.761%.
Take `N/C(=N\OC(=O)c1ccc([N+](=O)[O-])cc1)c1ccccn1`: the “hERG current change (%, negative = inhibition) at 10uM” value amounted to 1.34%.
Next, `COCCNC(=O)c1oc2ccc3c(c2c1C)C(O)CC(C)(C)O3` (centres unmarked): 14.5%.
On to `CCN(CC)CCNC(=O)NC(=O)c1ccc(Cl)cc1`, for which the “hERG current change (%, negative = inhibition) at 10uM” value is -63%.
Next, `CC1(C)Cc2c(cnn2-c2ccccc2)-c2c1c1ccccc1n2CC(O)CBr` (centres unmarked): 8.52%; `O=C(CSc1ccccc1)NCc1ccccn1`: 7.44%.
`Cc1ccc(C)c(S(=O)(=O)N2CCN(Cc3ccc(O)c4ncccc34)CC2)c1`: the “hERG current change (%, negative = inhibition) at 10uM” value came to 8.36%.
With `Cc1nn(C)cc1CNC(=O)c1cccc(F)c1` the figure was 0.748%; with `COC(=O)N[C@H](CC(C)=O)c1cccc(C(F)(F)F)c1`, 19.5%.
Next, `CC(C)CNC(=S)NC(=O)c1ccccc1Cl`: -0.864%; `CCOC(=O)C1(CCOc2ccccc2)CCN(Cc2cc(OC)c(O)c(OC)c2)CC1`: -77.6%.
For the compound `CN(CC(=O)NC(=O)NCc1ccccc1)Cc1ccc(Cl)cc1`, the “hERG current change (%, negative = inhibition) at 10uM” value is listed as -22.6%.
`Cc1nc(N2CCCCC2)sc1C(=O)c1ccc(Cl)c([N+](=O)[O-])c1`: the “hERG current change (%, negative = inhibition) at 10uM” value is listed as 7.93%.
Take `O=C(CCSc1ccccc1)NNC(=O)c1ccccc1F`: the “hERG current change (%, negative = inhibition) at 10uM” value was 18.5%.
As to `COc1ccc(S(=O)(=O)N2CCCC2)cc1NC(=O)c1ccccc1F`, the “hERG current change (%, negative = inhibition) at 10uM” value is recorded as 25.9%.
Next, `Cn1c(CO)cnc1SCc1c(Cl)cccc1Cl`: 3.01%.
As to `CSC[C@@H]1NC(=S)N(c2ccc(C)cc2)C1=O`, the “hERG current change (%, negative = inhibition) at 10uM” value came to 15.6%.
As for `Cc1noc(C)c1C(=O)N(C)CC(=O)Nc1ccc(F)c(F)c1F`, the “hERG current change (%, negative = inhibition) at 10uM” value is on record as -4.15%.
With `NS(=O)(=O)c1cccc(NC(=O)COC(=O)/C=C/c2ccco2)c1` the figure was -0.65%.
For `CCCS(=O)(=O)N1CCCC(C(=O)NCC2CCCO2)C1` (centres unmarked), the “hERG current change (%, negative = inhibition) at 10uM” value is on record as 11.1%.
`CCOc1ccccc1N1CCN(C(=O)NCc2ccc(F)cc2)CC1`: the “hERG current change (%, negative = inhibition) at 10uM” value is -9.29%.
Regarding `COC(=O)CCC(=O)OC1(C)C(=O)C2=CN(C3CCCC3)C(c3ccc(OC)cc3)=CC2=C(Br)C1=O` (centres unmarked), the “hERG current change (%, negative = inhibition) at 10uM” value was -52.6%.
On to `CC(Sc1ccccc1)C(=O)NN=C1CCN(C)CC1` (centres unmarked), for which the “hERG current change (%, negative = inhibition) at 10uM” value turned out to be 20.7%.
Consider `Cc1ccc(C(=O)COC(=O)CNC(=O)c2ccco2)cc1`, for which the “hERG current change (%, negative = inhibition) at 10uM” value was 1.12%.
Next, `O=C(N=Nc1c(O)n(Cc2ccccc2)c2ccccc12)c1ccncc1`: -31.5%.
Next, `O=C(c1ccc(S(=O)(=O)N2CCCC2)cc1)N1CCCCC1`: -9.7%; `Cc1c(C(=O)Nc2ccc(-c3nnc4n3CCCCC4)cc2)oc2c1ccc1ccccc12`: -13.8%; `C=CCn1c([O-])c(C(C)=O)c(=O)[nH]c1=O.C[NH+](C)C`: 6.41%.
With `CSCc1cc(N(C)C)nc(SCc2ccc(Cl)cc2Cl)n1` the figure was 12.9%; with `N=c1oc2cc(O)ccc2cc1C(=O)Nc1nc2ccccc2s1`, 11.4%; with `CN1CC(=O)Nc2ccc(Br)cc2C1=O`, 19.9%.
In the case of `CCOC(=O)C(C)Sc1nnc(-c2c[nH]c3ccccc23)n1C` (centres unmarked), the “hERG current change (%, negative = inhibition) at 10uM” value is 6.23%.
With `CC(=O)Nc1ccc(S(=O)(=O)N(C)CC(=O)OCC(=O)c2cc(C)n(-c3ccc4c(c3)OCO4)c2C)cc1` the figure was 11.8%.
`NC(=O)C1CCN(C(=S)c2ccc(-c3ccc(Br)cc3)o2)CC1`: the “hERG current change (%, negative = inhibition) at 10uM” value was found to be 23.3%.
With `COc1ccc(OCCC(=O)Nc2ccccc2)cc1`, the “hERG current change (%, negative = inhibition) at 10uM” value was -6.83%.
Next, `N#Cc1cc2c(nc1SCC(=O)Nc1sc3c(c1C#N)CCC3)CCCC2`: 4.92%.
Consider `CC1CN(c2snnc2C=C2C(=O)OC(C)(C)OC2=O)CC(C)O1` (centres unmarked), for which the “hERG current change (%, negative = inhibition) at 10uM” value is 33.8%.
Next, `Cc1cccc(NC(=O)Cn2c(=O)oc3ccccc32)n1`: 9.29%; `COc1ccc(Cc2nnc(SCC(=O)NCC3CCCO3)o2)cc1` (centres unmarked): 25.9%.
Consider `COc1c(Cl)cc(Cl)cc1CNCCNCC(C)O.Cl` (centres unmarked), for which the “hERG current change (%, negative = inhibition) at 10uM” value is given as -6.46%.
Next, `CCOC(=O)c1cccc(NC(=S)NCc2ccc(C)cc2)c1`: 0.823%; `COc1cc2c(c(OC)c1OC)-c1c(cc3c(c1O)OCO3)C[C@@H](C)[C@@H](C)C2`: 0.26%.
In the case of `O=C(c1ccc2c(c1)OCO2)N1CCN(c2ccccc2)CC1`, the “hERG current change (%, negative = inhibition) at 10uM” value is listed as -10.9%.
As for `COc1ccc(-n2c(C)cc(C(=O)CN3CCCCC3)c2C)cc1`, the “hERG current change (%, negative = inhibition) at 10uM” value is on record as 1.6%.
With `O=C(/C=C/c1cccc(Br)c1)c1ccc2c(c1)OCO2` the figure was 6%; with `CN(C)CCN(C(=O)/C=C/c1cccs1)c1nc2c(F)cc(F)cc2s1.Cl`, -47.8%; with `CCC(C)(C)n1nnnc1C(c1cccnc1)N1CCCC(C)C1` (centres unmarked), 3.14%.
In the case of `N#C/C(=C\c1ccc(Cl)cc1)c1nc(-c2ccco2)cs1`, the “hERG current change (%, negative = inhibition) at 10uM” value is recorded as 17.6%.
With `COc1ccc2cc(Br)ccc2c1CC(=O)NC(C)C` the figure was 15.8%; with `COc1ccc(CCN(Cc2nc3ccccc3c(=O)[nH]2)C(=O)c2ccco2)cc1OC`, 13.2%.

The record behind these values is article PMC4336329 (PLoS ONE, 2015).
